{"source": "the RNAGym collection of RNA variant scans (doi:10.7554/elife.90254)", "parents": {"B1": {"name": "LINE1-mini (parent)", "chain": "GGCAGAGCUCAACACAGCGUGGCAAAGUGGCUGUGGCUAGACUGCC"}}, "note": "The source gives no read counts; variants with many changes may rest on few reads."}
{"variants_of": "B1", "experiment": "self-cleavage, relative activity (ratio to wild type); higher = more cleavage; in vitro, sequencing; the parent is a self-cleaving ribozyme"}
{"variant": "GGCAGCGCUCAACACAGCGUGGCAUAGUUGUUCUGGCUAGACUGCC", "note": "[A6C A25U G29U C31U G33C]", "self-cleavage": 0.02}
{"variant": "GGCAGAGCACAACACCGCGUGGCAAAGUGUCUGUGGAUAGACUGCC", "note": "[U9A A16C G30U C37A]", "self-cleavage": 0.02}
{"variant": "GGCAGAGAUCAACACAGCGCGGCAAGGUGGCUGUGGCUAGACUGCC", "note": "[C8A U20C A26G]", "self-cleavage": 0.03}
{"variant": "GGCAGAGCUCAACACAGAGAGGCAAAGUGGCUGUGGCUAGGCUGCC", "note": "[C18A U20A A41G]", "self-cleavage": 0.21}
{"variant": "GUAAGAGCUCAACACAGCGUAGCAAGGUGGCUGUGGCUAGACUCCC", "note": "[G2U C3A G21A A26G G44C]", "self-cleavage": 1.17}
{"variant": "GGCAGAGCUCGACACAGCGUGGCAUAGUGGCUGUAGCUAGACUGCC", "note": "[A11G A25U G35A]", "self-cleavage": 0}
{"variant": "GGCAGAGCGCAACACAGCGUGUCACAGUGGCUGUGGCUCGACUGCC", "note": "[U9G G22U A25C A39C]", "self-cleavage": 0.01}
{"variant": "GUCAGAGCUAAACACAGCAUGGGAAAGUGGCUGGGGCUAGACUGCC", "note": "[G2U C10A G19A C23G U34G]", "self-cleavage": 0}
{"variant": "GGCAGAGCUGGCCACGGCGUGGCAAAGUGGCUGUGGCUAGACUGCC", "note": "[C10G A11G A12C A16G]", "self-cleavage": 0}
{"variant": "GGCAUAGCUCUCCACAGCGAGGCAAAGUGGCUGUGGCUAGACUGCU", "note": "[G5U A11U A12C U20A C46U]", "self-cleavage": 0}
{"variant": "GGCAGAGCUCAGUACAGCGUGGCCAAGUCGCUGUGGGUAGACUGCC", "note": "[A12G C13U A24C G29C C37G]", "self-cleavage": 0.01}
{"variant": "GGCAGAGCUCAACACAGAGUGGCAUAGUGGCUGUAGCUAGAAUGCC", "note": "[C18A A25U G35A C42A]", "self-cleavage": 0.03}
{"variant": "GGGAGAGCUCAACUCAGCGUGGCACAGUGGCUGUGGCUAGACUUCC", "note": "[C3G A14U A25C G44U]", "self-cleavage": 0.06}
{"variant": "GGCAGAGCUCAACACAGUCUGGCAAAGUGGCUGUGGCUGGACUGCC", "note": "[C18U G19C A39G]", "self-cleavage": 0.06}
{"variant": "GGGAGAGCUCAACACAGCGUGGCAAAGUGGCUGCGGCUAGACUCCC", "note": "[C3G U34C G44C]", "self-cleavage": 0.12}
{"variant": "AGGAGAGCUCUACACAGCCUGGCAAAAUGGAUGUGGCUAGACUGCC", "note": "[G1A C3G A11U G19C G27A C31A]", "self-cleavage": 0.02}
{"variant": "GGCAGAUCUCAACACAGCGUGGAAAAGUGGCCGUGGCUAGAUUGCC", "note": "[G7U C23A U32C C42U]", "self-cleavage": 0.09}
{"variant": "GGUAGAGCUCAACACAGCGUGGCAAACCGGCCGCGGCUAGACUGCA", "note": "[C3U G27C U28C U32C U34C C46A]", "self-cleavage": 0.01}
{"variant": "GCCAGAGCUCUACACAGCGUGGCAAAGUGGCUGUGGCUAGACUACC", "note": "[G2C A11U G44A]", "self-cleavage": 0.04}
{"variant": "GGCAGUGCUCAACAGAGCGUGGAAAAGUGGUUGUGGCUAGACUGCC", "note": "[A6U C15G C23A C31U]", "self-cleavage": 0.02}
{"variant": "AACAGAGCUCAACACAGCGUGACAAAGUGGCUGUCGCUAGACUGCC", "note": "[G1A G2A G22A G35C]", "self-cleavage": 0.25}
{"variant": "GGCAGACUUCAACACAGCGUGGCAAAGUGGCUGUGGCUAGACUGCA", "note": "[G7C C8U C46A]", "self-cleavage": 0.14}
{"variant": "GGCACAGCUCAACACAGCGUGGGAAAGUGGCUGUGACUAGACUGCC", "note": "[G5C C23G G36A]", "self-cleavage": 0.01}
{"variant": "GGCAGAGCUCAACACAGCGUUGCAAAGUGGCUGUGGCUCAACUGCC", "note": "[G21U A39C G40A]", "self-cleavage": 0.06}
{"variant": "GGACGACCUCAACACAGCGUGGCAAAGUGGCUGGGGCUAGACUGCC", "note": "[C3A A4C G7C U34G]", "self-cleavage": 0.02}
{"variant": "GGGAGAGCUCAACACAGCGUAGUAAAGUGGCUGUGGGUAGACUGCC", "note": "[C3G G21A C23U C37G]", "self-cleavage": 0.01}
{"variant": "CGCAGAGCUCAACACAGCGUUGCAAAGUAGCGGUGGCCAGAUUGCC", "note": "[G1C G21U G29A U32G U38C C42U]", "self-cleavage": 0}
{"variant": "GGCAGAGCUCAACACAGCGUGGCAAAGAUGCUGUGGAUAGACUGCC", "note": "[U28A G29U C37A]", "self-cleavage": 0.01}
{"variant": "GUCAGAGCUCAACACAGCAUGGCAAAGUGCCUGUGGCUAAACUGCC", "note": "[G2U G19A G30C G40A]", "self-cleavage": 0.02}
{"variant": "GGCAGAGCUCAACACGGCGUGGCAAAGCGGGUGUGCCUAGACUGUG", "note": "[A16G U28C C31G G36C C45U C46G]", "self-cleavage": 0.05}
{"variant": "GGCAGAGCUCAUUACAGCGUGGCAAAGUGGCUGUGGCUAGGCUGCC", "note": "[A12U C13U A41G]", "self-cleavage": 0.05}
{"variant": "GGCAGAGCUGAACAUAGCGUGGCAAAAUGGAUGUGGUUAGACUGCC", "note": "[C10G C15U G27A C31A C37U]", "self-cleavage": 0.01}
{"variant": "GGCAGAUCUCAACACAGCGUGGCAAAGUGGAUGAGUCUAGACUGCC", "note": "[G7U C31A U34A G36U]", "self-cleavage": 0.01}
{"variant": "GGCAGAGCUGAACAGAGCGUGGCAAAGUGUCUGUGGCUAGACUGCC", "note": "[C10G C15G G30U]", "self-cleavage": 0.04}
{"variant": "GGCAGAGCUCAACACAGCGUGGUAAAGCGGCUGAGGCUAGACUGCC", "note": "[C23U U28C U34A]", "self-cleavage": 0.11}
{"variant": "GGCAGAGCUCAAAACAACGUGGCAAAGUGGCUGUGGUUAGACUGCC", "note": "[C13A G17A C37U]", "self-cleavage": 0.1}
{"variant": "GGGAGAGUUCAACACAGCGUGUCAAAGUGGCUGUGGCUAGACUGCC", "note": "[C3G C8U G22U]", "self-cleavage": 0.88}
{"variant": "GGCAGAGCUCAACACGGCGUGGAAAAGUGUCUGUGGCUACACUGCC", "note": "[A16G C23A G30U G40C]", "self-cleavage": 0.02}
{"variant": "GGCGGAGCUCAAAACAGCGUUGCAAAGUGGCUGUGGCUAGACUGCC", "note": "[A4G C13A G21U]", "self-cleavage": 0.3}
{"variant": "GGCAGAGCUCAACACAGCGCGGCAAAGUGGCUGAGGCUAGACUGCG", "note": "[U20C U34A C46G]", "self-cleavage": 0.37}
{"variant": "CGCAGAGCUCAACACGGCGUGGCAAAGUGGCUGUGGGUAGACUGCC", "note": "[G1C A16G C37G]", "self-cleavage": 0.02}
{"variant": "GGCAGUGCUCAACACAGCGUGGCUAAGUGACUGUGGCUACACUGCC", "note": "[A6U A24U G30A G40C]", "self-cleavage": 0.1}
{"variant": "GGCAGAGCUCAACACAGCGUGGAAAAGUGGCUGUGGCAAGACUGAC", "note": "[C23A U38A C45A]", "self-cleavage": 0.9}
{"variant": "GGCAGAGCUCAACACAGCGAGGCAAAGCUGCUGUGGCUAGACUGCC", "note": "[U20A U28C G29U]", "self-cleavage": 0.76}
{"variant": "GGCAGAGCUCAACACAGCGUUGCAACGUGGAUGUGGCUUGAAUGCC", "note": "[G21U A26C C31A A39U C42A]", "self-cleavage": 0.05}
{"variant": "GGCAGAGCUAAACACAGUGUGGUAAUGUGGUUGUGACUAGACUGCC", "note": "[C10A C18U C23U A26U C31U G36A]", "self-cleavage": 0.01}
{"variant": "GACAGAGCGCAACACAUCGUGGCUAAGUGGCUGUGGCUAGACUGCC", "note": "[G2A U9G G17U A24U]", "self-cleavage": 0.32}
{"variant": "GGCAGAGCUCAAUACAGCUUGGCAAAGUGGCGGUGGCGAGACUGCC", "note": "[C13U G19U U32G U38G]", "self-cleavage": 0.03}
{"variant": "GGCAUACCUCAACACAGCGUGGCAAAGUGGCUGUGCCUAGACUGCC", "note": "[G5U G7C G36C]", "self-cleavage": 0.1}
{"variant": "GGCCGAGCUCAACACGGCGUGGCAAAGUGGCGUUCGCUAGACUGCC", "note": "[A4C A16G U32G G33U G35C]", "self-cleavage": 0.02}
{"variant": "CGCGGAGCUCCACACAGCGUGGCAAAGGGGCUGUGGCUAGACUGCC", "note": "[G1C A4G A11C U28G]", "self-cleavage": 0}
{"variant": "GGCAGAGCUCAAUACAGCGGGGCAAAGUGGCUGUGGCCAGACUGCC", "note": "[C13U U20G U38C]", "self-cleavage": 0}
{"variant": "GGCAGGGCUCCAAACAGCGUGGCAAAGUGGCUGAGGCUAGACUGCC", "note": "[A6G A11C C13A U34A]", "self-cleavage": 0.01}
{"variant": "GGCAGAGCGCUACACAGCGUGGGAAAGUGGUUGUGGCUUGACUGCC", "note": "[U9G A11U C23G C31U A39U]", "self-cleavage": 0}
{"variant": "GGCAGGGCUCAACACAACGUCGCAAAGUGGCUGUGGCUAGACUGCC", "note": "[A6G G17A G21C]", "self-cleavage": 0.08}
{"variant": "GGCAGAGCUCAACACAGAGUGGCAAAGUGGCUGUGGCUACACUGUC", "note": "[C18A G40C C45U]", "self-cleavage": 0.02}
